PubChem BioAssay AID588855 (National Center for Advancing Translational Sciences (NCATS), 2011)
Screen size: about 410,000 compounds; about 5,000 (1.2%) were called active. Inconclusive means that the source gave no clear call. Such entries were picked first, then a sample of the others. Calls come from the whole dose curve; as a rule, active = well fitted inhibition curve with a large enough effect; inconclusive = small, poorly fitted or top-dose-only effect; inactive = no such curve, though single readings can be large or run the other way. Potencies beside an inconclusive call are fits to weak or partial responses and may not hold up.

Test: qHTS for Inhibitors of TGF-b; note: nearly all actives have a fitted effect of over 65% in size
Conditions: HepG2 CAGA-GFP TGF-b/SMAD3 reporter, GFP fluorescence, 18 h, TGF-beta stimulated, 500 pg/mL final; series mostly up to 46.1 µM
In short: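 Inhibition was scored as loss of TGF-beta-induced (500 pg/mL final, 18 hours, 37 degrees C) GFP in HEPG2 cells carrying a CAGA-GFP reporter, in DMEM with 1% FBS. Well GFP was summed per cell; Activity was normalised to unstimulated and stimulated DMSO wells, then concentration-response fitting.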
Potency is the fitted concentration of half-maximal effect; tags give direction and shape of the fitted curve.

| SMILES | Potency |
| --- | --- |
| O=C(Nc1nc(-c2ccccn2)cs1)Nc1ccc(F)cc1F | inconclusive: 3.16 µM [inhibitor, partial curve, poor fit] |
| CCCCCCNC(=O)C(C#N)c1nc2ccccc2nc1N1CCOCC1 (configuration not stated) | inconclusive: 1.12 µM [inhibitor, full curve, poor fit] |
| CNS(=O)(=O)c1ccc(OC)c(-c2nnc3c4ccccc4c(C)nn23)c1 | inconclusive: 17.8 µM [inhibitor, single point] |
| COc1ccc(OCCNC(=S)Nc2cccc3ccccc23)cc1 | inconclusive: 5.62 µM [inhibitor, single point] |
| CCC(COC(=O)c1ccccc1)Oc1cc(NCc2ccccc2)c2ncn(C(C)C)c2c1 (configuration not stated) | inconclusive: 35.5 µM [inhibitor, single point] |
| CC1CN(S(=O)(=O)c2cccc(C(=O)NCc3ccco3)c2)CC(C)O1 (configuration not stated) | inactive |
| CCn1c(=O)c(C(=O)CN2CCc3ccccc32)c(N)n(Cc2ccccc2)c1=O | inconclusive: 7.08 µM [inhibitor, full curve, poor fit] |
| CCCCn1c(/C=N/Nc2nc3ccccc3[nH]2)nc2ccccc21 | active: 11.2 µM |
| O=C(Nc1ccccn1)c1sc2cc([N+](=O)[O-])ccc2c1Cl | inactive |
| CCOCCOC(=O)c1ccc(NC(=O)/C=C/c2ccc(OC)c(OC)c2)cc1 | inconclusive: 35.5 µM [inhibitor, single point] |
| Cc1cc(C)nc(N2CCN(c3ccc(F)cc3)CC2)n1 | inactive |
| Cc1ccc(/C=C2\SC(=S)N(CCC(=O)N3CCCCC3)C2=O)cc1 | inactive |
| CC(C)c1ccc(/C=N/n2c(COc3ccccc3)n[nH]c2=S)cc1 | inconclusive: 35.5 µM [inhibitor, single point] |
| Cc1ccc(Cl)cc1NC(=O)N1CCN(C)c2ncccc21 | inconclusive: 25.1 µM [inhibitor, single point] |
| CC1(O)CC(c2ccc(Cl)cc2)=NN1C(=O)c1ccc(Cl)cc1 (configuration not stated) | active: 10 µM |
| COc1cc(C(O)c2nc(-c3cccc(C(F)(F)F)c3)cs2)ccc1F (configuration not stated) | active: 12.6 µM |
| O=C(COC(=O)c1cc(Cl)nc(Cl)c1)NC1CCCCCC1 | inactive |
| CN(C)CC/C=C1\c2ccccc2Sc2cc(F)c(Cl)cc21 | inconclusive: 25.1 µM [inhibitor, single point] |
| C#Cc1ccc(C(=O)Nc2cc(C(N)=O)ccc2N2CCOCC2)cc1 | inactive |
| O=c1[nH]cccc1-c1nc2ccccc2n1Cc1cccc(Cl)c1 | inconclusive: 3.16 µM [inhibitor, single point] |
| COc1cccc(C(=O)O/N=C(\N)c2ccc([N+](=O)[O-])cc2)c1OC | inconclusive: 35.5 µM [inhibitor, single point] |
| CC1=C(C#N)C(NC(=O)c2cccc(Cl)c2)(C(F)(F)F)C(=O)N1 (configuration not stated) | inconclusive: 6.31 µM [inhibitor, single point] |
| COC(=O)C(C)Sc1ncnc2c1nnn2-c1ccc(F)cc1 (configuration not stated) | inconclusive: 35.5 µM [inhibitor, single point] |

| SMILES | Potency |
| --- | --- |
| CN(C)c1ccc(C(=O)N2CCCC(CCC(=O)N3CCN(c4ccccn4)CC3)C2)cc1 (configuration not stated) | inconclusive: 22.4 µM [inhibitor, single point] |
| COc1cc(/C=C/C(O)=C/C(=O)/C=C/c2ccc(O)cc2)ccc1O | inconclusive: 17.8 µM [inhibitor, single point] |
| CC(C)(C)c1ccc(CSc2ccc(S(=O)(=O)N3CCOCC3)cn2)cc1 | inconclusive: 22.4 µM [inhibitor, single point] |
| Cc1cc(C)cc(NC(=O)c2nnn(Cc3cc(C)ccc3C)c2N)c1 | inconclusive: 28.2 µM [inhibitor, single point] |
| CCCCCCCNC(=O)C1(CC2CC(c3cccc(Br)c3)=NO2)CCN(C(=O)OC(C)(C)C)CC1 (configuration not stated) | inactive |
| CCN(CC)c1c([N+](=O)[O-])ncn1C | inconclusive: 0.112 µM [inhibitor, full curve, poor fit] |
| c1ccc(-n2nnnc2Oc2cccc3cccnc23)cc1 | inconclusive: 3.55 µM [inhibitor, single point] |
| O=C(Nc1ccccc1C(=O)Nc1nnc(C(F)(F)F)s1)c1ccccc1 | inconclusive: 1.12 µM [inhibitor, full curve, poor fit] |
| Cc1ccc(-c2noc(CNC(=O)c3ccc(C(C)(C)C)cc3)n2)cc1 | inconclusive: 20 µM [inhibitor, partial curve, poor fit] |
| OC(c1cccc(Cl)c1)c1ncc(-c2cccc3ccccc23)[nH]1 (configuration not stated) | inconclusive: 11.2 µM [inhibitor, single point] |
| O=C(CN1C(=O)c2ccccc2C1=O)NC1CCC(O)CC1 (configuration not stated) | inconclusive: 35.5 µM [inhibitor, single point] |
| C=C(C)C(=O)Nc1cccc(C2=NOC3(C2)C[C@H](C(N)=O)N(C(=O)c2ccccc2)C3)c1 (some centres not stated) | inconclusive: 7.08 µM [inhibitor, partial curve] |
| CC1CN(c2ccc([N+](=O)[O-])cc2F)CCN1C(=O)c1ccco1 (configuration not stated) | inconclusive: 22.4 µM [inhibitor, single point] |
| CCOC(=O)c1sc(Nc2nc(C)cc(C)n2)nc1C | inactive |
| COc1ccc2c(c1)-c1nc(NC(=O)c3ccco3)sc1CC2 | inconclusive: 35.5 µM [inhibitor, single point] |
| Cn1c(=O)c2[nH]c(COc3ccccc3)nc2n(C)c1=O | inactive |
| CCOC(=O)C1=CN(Cc2ccco2)S(=O)(=O)N(C)C1CC (configuration not stated) | inconclusive: 35.5 µM [inhibitor, partial curve, poor fit] |
| NC1(C(=O)O)CCCC1 | inactive |
| O=C(Nc1ccc(F)cc1)N(Cc1cccs1)Cc1cc2cc3c(cc2[nH]c1=O)OCO3 | inconclusive: 35.5 µM [inhibitor, single point] |
| O=C1C(Cl)=C(N2CCCCCC2)C(=O)N1c1ccc(Cl)cc1 | inconclusive: 22.4 µM [inhibitor, single point] |
| CCOc1ccc(CN2CCN(Cc3[nH]c4ccccc4c3C)CC2CCO)cc1 (configuration not stated) | inconclusive: 35.5 µM [inhibitor, single point] |
| Cc1cccc2nc(-c3cccnc3)c(Nc3ccc(C(C)C)cc3)n12 | inconclusive: 35.5 µM [inhibitor, single point] |
| Cc1oc2c(CN3CCCCC3)c(O)ccc2c(=O)c1-c1ccc(Cl)cc1 | inactive |

| SMILES | Potency |
| --- | --- |
| COc1cccc(/C=C/C(=O)Nc2cccc(C(C)=O)c2)c1OC | inactive |
| COc1ccc2[nH]cc(CCNC(=O)CC[C@H]3O[C@@H](n4cc(C)c(=O)[nH]c4=O)C[C@@H]3O)c2c1 | inactive |
| Cc1cc2nc(NCCCO)n(CC(=O)c3cc(C(C)(C)C)c(O)c(C(C)(C)C)c3)c2cc1C | inconclusive: 7.94 µM [inhibitor, partial curve] |
| COc1cc(C[C@H](C)[C@H](C)Cc2ccc3c(c2)OCO3)ccc1O | inconclusive: 22.4 µM [inhibitor, single point] |
| CCCNC(=O)c1ccc2c(=O)c(O)c(-c3ccc(F)cc3)[nH]c2c1 | inconclusive: 7.94 µM [inhibitor, partial curve, poor fit] |
| CCC(C)(C)n1nnnc1CN1CCC(O)(c2cccc(C(F)(F)F)c2)CC1 | inconclusive: 35.5 µM [inhibitor, single point] |
| Cc1oc(-c2ccc(Cl)cc2)nc1CS(=O)CC(=O)NC(C)c1ccccc1 (configuration not stated) | inconclusive: 7.08 µM [inhibitor, partial curve] |
| COC(=O)Nc1sc2c(c1C(=O)NC1CC1)CCCCCC2 | inactive |
| Cc1ccccc1OCCSCc1nc2ccccc2[nH]1 | inconclusive: 12.6 µM [inhibitor, single point] |
| S=Cc1ccc(/C=C/c2ccnc3ccccc23)cc1 | inactive |
| COc1ccc2[nH]c3c(c2c1)CCN1C(=O)C(CC(=O)NCc2ccc(OC)c(OC)c2)C[C@H](C(=O)N2CCOCC2)[C@@]31CCC1CCCC1 (some centres not stated) | inconclusive: 20 µM [inhibitor, single point] |
| CC(Cc1cccs1)NC(=O)Nc1ccc(Cl)c(Cl)c1 (configuration not stated) | inconclusive: 20 µM [inhibitor, single point] |
| Cc1c(-c2nsc(NC(=O)c3ccc(Cl)cc3)n2)nnn1-c1ccc(C(C)C)cc1 | inconclusive: 7.08 µM [inhibitor, partial curve] |
| CC(CN1CCN(CC(C)C(=O)c2ccccc2)CC1)C(=O)c1ccccc1 (configuration not stated) | inactive |
| COc1ccc(NC(=O)c2cnn(-c3ccc(C)cc3)c2-n2cccc2)cc1Cl | inconclusive: 3.55 µM [inhibitor, partial curve, poor fit] |
| CC(CC(=O)NCc1ccc(Cl)cc1)CC1=NS(=O)(=O)c2ccccc2N1 (configuration not stated) | inconclusive: 28.2 µM [inhibitor, single point] |
| O=C(Cn1cc(SCc2ccc(C(F)(F)F)cc2)c2ccccc21)N1CCCCC1 | inconclusive: 28.2 µM [inhibitor, single point] |
| CC(C)=CCC/C(C)=C/C=N/NC(=O)c1cccc([N+](=O)[O-])c1 | inactive |
| COc1cc(NC(=O)c2cc(-c3ccc4c(c3)OCO4)on2)cc(OC)c1OC | inconclusive: 25.1 µM [inhibitor, single point] |
| C/C(=N\NC(=O)c1cc2ccccc2cc1O)c1cc2ccccc2o1 | inconclusive: 22.4 µM [inhibitor, partial curve, poor fit] |
| O=P(Cc1ccccc1)(c1ccccc1)c1ccccc1 | inconclusive: 35.5 µM [inhibitor, single point] |
